Some of the results follow. Values were computed here from the reads of four pooled replicates and scatter widely.
Biological target: T1, Pho4 (S. cerevisiae) (UniProt P07270)
T1 sequence: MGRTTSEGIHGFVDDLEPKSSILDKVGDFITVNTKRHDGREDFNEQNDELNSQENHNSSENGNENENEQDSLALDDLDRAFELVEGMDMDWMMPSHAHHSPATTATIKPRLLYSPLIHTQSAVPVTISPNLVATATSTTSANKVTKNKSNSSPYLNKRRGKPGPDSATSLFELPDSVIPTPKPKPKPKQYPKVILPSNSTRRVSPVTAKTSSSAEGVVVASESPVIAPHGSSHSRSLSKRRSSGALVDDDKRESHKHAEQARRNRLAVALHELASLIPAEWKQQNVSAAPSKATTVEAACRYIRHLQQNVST
Test: relative binding free energy (BET-seq); higher = weaker binding
Conditions: reference: library average

Sequence	relative binding free energy
TGGAGCACGTGTACGT	-0.11 kcal/mol
GATGACACGTGTAGGG	0.02 kcal/mol
GTCATCACGTGGGTAT	0.12 kcal/mol
TGTGGCACGTGGCGTT	-0.15 kcal/mol
CGTGACACGTGTGGGC	-0.04 kcal/mol
AGTTACACGTGTACAT	0.2 kcal/mol
GATGTCACGTGTGTGG	0.23 kcal/mol
TTAAACACGTGGGTTG	-0.17 kcal/mol
CGGCGCACGTGTTGTA	-0.09 kcal/mol
CTGGTCACGTGATATT	0.18 kcal/mol
TTGGTCACGTGAGTGT	0.34 kcal/mol
TTTAGCACGTGACTGT	0 kcal/mol
GGGGCCACGTGGTTCG	-0.13 kcal/mol
TCGAGCACGTGCGTTG	-0.05 kcal/mol
TTTAACACGTGAAAGT	0.3 kcal/mol
TTAGGCACGTGTAAAG	-0.06 kcal/mol
AGCTGCACGTGTCGTG	0.12 kcal/mol
CGAGTCACGTGGAGTA	0.01 kcal/mol
TTAGTCACGTGTTGCT	0.02 kcal/mol
TGCGGCACGTGGGCAG	-0.32 kcal/mol
GAGTGCACGTGACGGT	0.03 kcal/mol
GTCAACACGTGTGTTG	0.09 kcal/mol
GATCGCACGTGGTGGT	-0.07 kcal/mol
TTTACCACGTGTAAGG	0.03 kcal/mol
GTCTTCACGTGGCGGA	0.27 kcal/mol
TGTGACACGTGATGGC	0.19 kcal/mol

Sequence	relative binding free energy
CAATGCACGTGATGGT	0.12 kcal/mol
CGGGTCACGTGGCGAG	0 kcal/mol
AAAGGCACGTGGCTGG	-0.1 kcal/mol
AAGGGCACGTGGGATT	-0.13 kcal/mol
GATAGCACGTGGTTAG	-0.07 kcal/mol
AATAACACGTGTAGGT	-0.05 kcal/mol
CTGTGCACGTGTGTTT	-0.01 kcal/mol
TGCCTCACGTGTGGGT	0.39 kcal/mol
GTATACACGTGTTGGA	0.12 kcal/mol
AATTGCACGTGTGTCG	0.13 kcal/mol
TTCGTCACGTGTTAGG	0.11 kcal/mol
GAGGCCACGTGTGGTT	0.14 kcal/mol
CTGGGCACGTGCGGAG	-0.09 kcal/mol
ATGGACACGTGGAGTT	0.18 kcal/mol
CTATGCACGTGGTTGT	-0.16 kcal/mol
TTAGCCACGTGATTTG	0.05 kcal/mol
TGGGCCACGTGTGGTA	-0.01 kcal/mol
GCGAGCACGTGGAGGG	-0.23 kcal/mol
TTCTTCACGTGAAGGT	0.36 kcal/mol
GTAGGCACGTGAGTGT	0.21 kcal/mol
ATGGGCACGTGTGCGA	-0.25 kcal/mol
TGTGGCACGTGTACGG	-0.04 kcal/mol
CCGTACACGTGAGGGG	0.24 kcal/mol
CGGCGCACGTGGTGTT	-0.21 kcal/mol
AATGGCACGTGATTAG	0.13 kcal/mol
CCGGGCACGTGCGGGG	-0.23 kcal/mol

Sequence	relative binding free energy
GATTGCACGTGTTGGC	0.14 kcal/mol
GTTTTCACGTGTGGTG	0.34 kcal/mol
GGCAGCACGTGGGTGT	-0.25 kcal/mol
GTGGTCACGTGATGCT	0.3 kcal/mol
ATGCGCACGTGCTGTG	-0.14 kcal/mol
AGTTGCACGTGCCTGT	-0.13 kcal/mol
GTTTACACGTGTTTCA	0.19 kcal/mol
ATTAGCACGTGTTCGG	-0.19 kcal/mol
ATCGGCACGTGAGCGG	0.05 kcal/mol
GGTACCACGTGGGGGC	-0.22 kcal/mol
TGATCCACGTGTGTTA	0.06 kcal/mol
TCATTCACGTGGCAGT	0.28 kcal/mol
AGGGCCACGTGATGTG	0 kcal/mol
GGAACCACGTGGGTTG	-0.05 kcal/mol
TGTCGCACGTGGTGGC	-0.17 kcal/mol
CAGAGCACGTGTTGGG	-0.21 kcal/mol
TATTGCACGTGTGTTA	-0.02 kcal/mol
ATTTACACGTGTATAT	0.13 kcal/mol
TCTTTCACGTGAGTTT	0.43 kcal/mol
CTGCACACGTGTTGGG	0.08 kcal/mol
AAATGCACGTGTTGAG	-0.03 kcal/mol
TGGGTCACGTGTGGAG	0.19 kcal/mol
TCAGGCACGTGGTTGA	-0.13 kcal/mol
GATTGCACGTGTAAAG	0.11 kcal/mol
GTAGGCACGTGGTGGC	-0.11 kcal/mol
TCAGTCACGTGTGTTG	0.12 kcal/mol

Sequence	relative binding free energy
TTAGGCACGTGATGAC	0.1 kcal/mol
CTTCTCACGTGGTGGA	0.21 kcal/mol
GGTGGCACGTGCTGCG	-0.14 kcal/mol
TATTTCACGTGGGATA	0.11 kcal/mol
GTTTCCACGTGGGGAA	0.08 kcal/mol
ATTGGCACGTGAAATA	0.18 kcal/mol
ACTAGCACGTGTTTTT	-0.09 kcal/mol
CTGGACACGTGTGTGC	0.09 kcal/mol
GTGGTCACGTGCTGGT	0.06 kcal/mol
AGAATCACGTGTTGTT	0.21 kcal/mol
ATGCTCACGTGGGCGG	-0.15 kcal/mol
CTTATCACGTGAGGGT	0.25 kcal/mol
TCTGTCACGTGTGCTG	0.05 kcal/mol
TGGAGCACGTGATGAT	0.1 kcal/mol
TAAGTCACGTGGTGGT	0.02 kcal/mol
ATTGGCACGTGTTAGG	-0.07 kcal/mol
TAGGACACGTGTTATG	0.09 kcal/mol
TGGGTCACGTGAAAGC	0.44 kcal/mol
TATGCCACGTGAGTTG	0.18 kcal/mol
GATCGCACGTGGGTGA	-0.13 kcal/mol
TGCGACACGTGTTTTG	-0.11 kcal/mol
TAGATCACGTGGGATG	-0.12 kcal/mol
GGCAGCACGTGGAAGG	0.02 kcal/mol
TGGTACACGTGAAGAT	0.23 kcal/mol
TGGAGCACGTGCGGAT	-0.08 kcal/mol
TGTGACACGTGTTGCT	0.03 kcal/mol

Sequence	relative binding free energy
TAGGGCACGTGGATTT	-0.03 kcal/mol
TCGGTCACGTGGTCTT	0.19 kcal/mol
TAGACCACGTGTGTTT	-0.02 kcal/mol
TCTGGCACGTGTTTGT	-0.1 kcal/mol
GAGCTCACGTGGGGCG	0.33 kcal/mol
TTGGCCACGTGGTCGT	-0.11 kcal/mol
TTTATCACGTGAGAGA	0.28 kcal/mol
TATAACACGTGGTGCG	-0.06 kcal/mol
GTATACACGTGAAGGG	0.23 kcal/mol
GATGTCACGTGTGCGT	0.06 kcal/mol
TGAGGCACGTGTTGCT	0 kcal/mol
GGGGTCACGTGTAGGT	0.23 kcal/mol
AAGCGCACGTGTCGGG	-0.03 kcal/mol
TTGAACACGTGATGTG	0.19 kcal/mol
TATGCCACGTGAGGTT	0.15 kcal/mol
TTTAACACGTGTTGAA	0.01 kcal/mol
TCGGACACGTGAAGGG	0.19 kcal/mol
ATGGGCACGTGGATAA	-0.18 kcal/mol
TGGTACACGTGTGTCG	0.08 kcal/mol
AGGTTCACGTGTTTCA	0.32 kcal/mol
TCGGGCACGTGTTATA	-0.24 kcal/mol
GAATTCACGTGTGGTC	0.4 kcal/mol
GAGGGCACGTGTCTTG	-0.02 kcal/mol
TCTTTCACGTGAAGTA	0.31 kcal/mol
TGGCTCACGTGGGGAT	0.1 kcal/mol
TGACGCACGTGGTCGG	-0.29 kcal/mol

Sequence	relative binding free energy
GTGTACACGTGCATTT	0.05 kcal/mol
ACTATCACGTGATGTT	0.16 kcal/mol
TAGAGCACGTGGGGTA	-0.26 kcal/mol
CTGACCACGTGGTGGG	-0.24 kcal/mol
AGGGGCACGTGTGAGT	-0.05 kcal/mol
AGGGACACGTGGAGGA	0.12 kcal/mol
CACTTCACGTGTTTGG	0.24 kcal/mol
CAAGGCACGTGTTAGG	-0.06 kcal/mol
AGGAACACGTGTGTTT	0.05 kcal/mol
TCGGTCACGTGGAAGA	0.32 kcal/mol
AAGGGCACGTGGGTAT	-0.22 kcal/mol
ATGGTCACGTGGTATA	0.11 kcal/mol
TTAGCCACGTGGTTTT	-0.03 kcal/mol
TTGAACACGTGGTCGG	-0.08 kcal/mol
GTTGACACGTGTGCAT	0.02 kcal/mol
GGGAGCACGTGGTAAA	-0.04 kcal/mol
TAAGACACGTGGGCTT	-0.15 kcal/mol
ATTTTCACGTGAGGCT	0.4 kcal/mol
ATGATCACGTGCTGGT	0.08 kcal/mol
GGGATCACGTGTGAGC	0.39 kcal/mol
TTGATCACGTGCGTCG	0.09 kcal/mol
TAAGTCACGTGGTGTA	0.06 kcal/mol
GGTGTCACGTGGGCTA	0.02 kcal/mol
AGGGGCACGTGGTTTT	-0.12 kcal/mol
GTGGTCACGTGGCAAT	0.18 kcal/mol
GTATACACGTGTTTGA	-0.04 kcal/mol

Sequence	relative binding free energy
TGTTCCACGTGTGCTG	0.05 kcal/mol
CGTCTCACGTGTGTTA	0.2 kcal/mol
GTCTGCACGTGGGGAG	-0.02 kcal/mol
AGGGACACGTGGTAGG	-0.08 kcal/mol
CGGGGCACGTGACAGG	-0.05 kcal/mol
GGGTACACGTGGGTCG	-0.03 kcal/mol
CGATACACGTGAGGGT	0.26 kcal/mol
TTCTTCACGTGTTGTT	0.14 kcal/mol
CTCGTCACGTGTTTGG	0.12 kcal/mol
TAGGGCACGTGGAGGA	-0.16 kcal/mol
TGAGCCACGTGGAGGG	-0.04 kcal/mol
TTTGACACGTGTCAAT	0.19 kcal/mol
GTCTTCACGTGTTCAT	0.41 kcal/mol
GTGCACACGTGAGGGT	0.17 kcal/mol
TAAGGCACGTGCGATG	0.01 kcal/mol
TTTGACACGTGTTTCT	-0.03 kcal/mol
ATAGGCACGTGTGAGC	-0.11 kcal/mol
CATTACACGTGGTGCT	0.08 kcal/mol
GTCGTCACGTGGGGCA	0.03 kcal/mol
TAATTCACGTGGAAGT	0.3 kcal/mol
TTGTGCACGTGCGAAG	-0.16 kcal/mol
TGTGACACGTGTCGTT	-0.02 kcal/mol
GGATGCACGTGTTGAT	0.22 kcal/mol
GGGCGCACGTGAGGGA	0.12 kcal/mol
TTCTGCACGTGCGTGG	-0.1 kcal/mol
TATTGCACGTGGTACG	-0.14 kcal/mol

Sequence	relative binding free energy
TGGTCCACGTGTAAAG	0.14 kcal/mol
TATGGCACGTGTGAGT	0.01 kcal/mol
GCTCTCACGTGGGGGT	-0.03 kcal/mol
CGGAGCACGTGGTTGG	-0.2 kcal/mol
TGTATCACGTGCGAGT	0.14 kcal/mol
ATTGTCACGTGAACTG	0.37 kcal/mol
TTGTCCACGTGCGGTT	-0.06 kcal/mol
GCTGGCACGTGTTGGG	0 kcal/mol
TTCAGCACGTGCTGGA	-0.05 kcal/mol
ATTGGCACGTGGGGGA	-0.24 kcal/mol
AGTTTCACGTGAAGCG	0.29 kcal/mol
GAAGCCACGTGGTGTT	-0.12 kcal/mol
AAGTGCACGTGGGCGT	-0.21 kcal/mol
GTGGACACGTGGTGTC	0.09 kcal/mol
ATACACACGTGAGGGG	0.28 kcal/mol
TGAGGCACGTGTGTAT	-0.06 kcal/mol
AAGGGCACGTGTTAGG	-0.09 kcal/mol
GTTCTCACGTGAGGCA	0.53 kcal/mol
GGTGACACGTGTTGTT	0.12 kcal/mol
TAGTTCACGTGGACGG	0.28 kcal/mol
TGTGACACGTGAAGGG	0.26 kcal/mol
TAGGGCACGTGGTCAT	-0.31 kcal/mol
ATTGGCACGTGAAGAT	-0.05 kcal/mol
GTGATCACGTGTAGGA	0.07 kcal/mol
GTTTTCACGTGCGAAT	0.37 kcal/mol
TGGCTCACGTGGTGAT	0.25 kcal/mol

Sequence	relative binding free energy
GCGGACACGTGTGGGC	0.1 kcal/mol
GTTTCCACGTGTGGCG	0.29 kcal/mol
GTACGCACGTGATTTA	0.13 kcal/mol
ATGTACACGTGTTGTT	0 kcal/mol
CATTGCACGTGAGGGG	0.17 kcal/mol
AGGATCACGTGTAAAT	0.26 kcal/mol
GGCGTCACGTGTTATA	0.15 kcal/mol
GGCTGCACGTGGAAAG	0.26 kcal/mol
GACATCACGTGGTGGG	0.27 kcal/mol
GAATTCACGTGGAGTA	0.33 kcal/mol
CGGGGCACGTGGAATG	-0.14 kcal/mol
GAGCTCACGTGTAGGG	0.18 kcal/mol
TCGGTCACGTGACGTG	0.13 kcal/mol
AAATGCACGTGGCAGG	-0.07 kcal/mol
TATAGCACGTGTGTCG	-0.14 kcal/mol
ATTTGCACGTGATGAT	0.13 kcal/mol
TTTAGCACGTGACGAG	0.18 kcal/mol
TTTAACACGTGGTCGG	0 kcal/mol
TTCGACACGTGTGGGA	0.07 kcal/mol
TTAAACACGTGGTGTG	-0.08 kcal/mol
AGGGTCACGTGGCACG	0.08 kcal/mol
TGTTACACGTGTTGTT	0.06 kcal/mol

From the BET-seq Pho4 binding data (Le et al. 2018)
